Laboratory results reported in PubChem BioAssay AID1745853 (National Center for Advancing Translational Sciences (NCATS), 2022).
The list shows a part of the results. Shown are side measurements of this screen, not its main read-out; they come without a call.

How the values were obtained:
Test in all cases: Primary Screen for Target Class Profiling of Small Molecule Inhibitors of Methyltransferases
[1] = biological target: Glycine N-methyltransferase (Homo sapiens) (UniProt Q14749); settings: purified enzyme, MTase-Glo SAH luminescence; measured here: GNMT inhibition; at 40 µM; stronger effect = lower value
In short: (§1)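 Each enzyme was reacted with SAM and its substrate, with compounds tested once at 40 uM; SAH formed was read by MTase-Glo luminescence.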

[2] = biological target: Guanidinoacetate N-methyltransferase (Homo sapiens) (UniProt Q14353); settings: purified enzyme, MTase-Glo SAH luminescence; measured here: GAMT inhibition; at 40 µM; stronger effect = lower value
In short: as §1

[3] = biological target: Histamine N-methyltransferase (Homo sapiens) (UniProt P50135); settings: purified enzyme, MTase-Glo SAH luminescence; measured here: HNMT inhibition; at 40 µM; stronger effect = lower value
In short: as §1

[4] = biological target: Nicotinamide N-methyltransferase (Homo sapiens) (UniProt P40261); settings: purified enzyme, MTase-Glo SAH luminescence; measured here: NNMT inhibition; at 40 µM; stronger effect = lower value
In short: as §1

[5] = biological target: Phenylethanolamine N-methyltransferase (Homo sapiens) (UniProt P11086); settings: purified enzyme, MTase-Glo SAH luminescence; measured here: PNMT inhibition; at 40 µM; stronger effect = lower value
In short: as §1
% is set by controls: 0 for no effect and ±100 for the full control effect.

Compound	activity change, negative = inhibition [1]	activity change, negative = inhibition [2]	activity change, negative = inhibition [3]	activity change, negative = inhibition [4]	activity change, negative = inhibition [5]
O=C(c1ccncc1)N1CC(c2nc(CCc3ccccc3)no2)C1	-5.43%	-5.9%	-1.57%	-9.47%	-9.87%
CCCn1c(=O)c2ccccc2n2c(=O)n(Cc3ccc(Cl)cc3)nc12	0.313%	3.06%	6.89%	-25.7%	2.17%
COc1cccc(N2CCN(C(=O)CCCc3nnc4n5nc(-c6ccccc6)nc5c5ccccc5n34)CC2)c1	4.29%	1.93%	5.5%	6.74%	0.313%
COc1ccc(CNC[C@H]2O[C@H](Cc3cc(COc4ccccc4)on3)CC[C@@H]2O)cc1	-3.38%	-4.24%	-5.2%	-9.12%	3.87%
O=C(c1ccc(-c2cncnc2)cc1)N1CCC(N[S+](=O)([O-])c2cccc(C(F)(F)F)c2)CC1	-9.81%	-2.94%	0.109%	-11.2%	-6.23%
Cc1ccccc1C(=O)Nc1ccc(C(=O)N2CCC[C@@H](O)c3cc(Cl)ccc32)c(C)c1	-8.53%	-10.7%	1.55%	-32.2%	-7.63%
Cc1cc(C)cc(N2C(=O)c3cc4occc4n3CC2(C)C(=O)NC2CCCCCC2)c1 (configuration not stated)	0.474%	0.438%	-3.23%	1.77%	-3.02%
Cc1nc([C@@H]2CN(C(=O)c3cccc(C#N)c3)C[C@H]2C(N)=O)n[nH]1	-4.18%	-3.03%	-0.806%	-1.35%	2.16%
CC(=O)O[C@@H]1c2c(C)coc2C(=O)[C@@]23O[C@@H]2CC[C@H](C)[C@@]13C	-4.98%	-9.62%	3.72%	-25.4%	-3.03%
Cc1ccc(C2Cn3nnc(C(=O)N4CCC(C(=O)NCCc5ccccc5)CC4)c3CO2)cc1 (configuration not stated)	-1.12%	-2.6%	-1.83%	-1.04%	0.154%
CN(CCCNC(=O)Cn1ccc2cc(S(=O)(=O)N3CCCCC3)ccc21)Cc1ccccc1	-2.28%	0.23%	-29.8%	-7.29%	-5.45%
Cc1nn(C)c(C)c1S(=O)(=O)N1CCC(c2noc(C3CC3)n2)C1 (configuration not stated)	-4.9%	-10.7%	-1.67%	-25.8%	-2.66%
CCC(C)Nc1nc2c(-c3ccc(Cl)cc3)nnn2c2ccccc12 (configuration not stated)	-0.876%	3.03%	-0.298%	-4.68%	-3.69%
CCC(C)NC(=O)c1ccc2c(=O)n(C(C)C)c3nn(CC(=O)Nc4ccc(C(C)C)cc4)c(=O)n3c2c1 (configuration not stated)	4.12%	0.074%	4.66%	0.138%	3.66%
COCc1nnc(C2CC3(CCN(C(=O)c4cccc(C)c4)CC3)CN2C)o1 (configuration not stated)	1.41%	5.34%	4.44%	-3.72%	20.5%
Cc1ccc(CNC(=O)c2ccc3c(=O)[nH]c4c(C(=O)NC(C)C)sc(=S)n4c3c2)cc1	6.06%	0%	10.9%	-61.1%	-12.3%
CCCSCCCN1C(=O)c2cc(-c3cccs3)nn2CC1(C)C(=O)NC1CCCCC1 (configuration not stated)	0.496%	0.137%	4.93%	4.17%	-0.17%
CC1CCCC(NC(=O)Cn2ccc3cc(S(=O)(=O)N4CCCC4)ccc32)C1C (configuration not stated)	-5.68%	-3.23%	-9.47%	-11.7%	-11.5%
C[C@H]1[C@@H]2[C@H]3OC(=O)[C@@H](C)[C@@H]3CC[C@@]2(C)CC[C@@H]1NC(=O)Cc1ccccc1	-5.72%	-2.74%	-1.75%	-3.11%	-6.26%

Compound	activity change, negative = inhibition [1]	activity change, negative = inhibition [2]	activity change, negative = inhibition [3]	activity change, negative = inhibition [4]	activity change, negative = inhibition [5]
O=C1CCC(c2ccc(-n3ccnc3)cc2)=NN1	-11.6%	0.218%	-2.48%	-7.14%	3.52%
COc1ccc(N2CCOC3CCN(Cc4ccc(C(C)C)cc4)CC3C2=O)cc1 (configuration not stated)	-10.6%	-5.72%	-7.65%	-15.6%	-6.36%
COc1ccc(CN2C(=O)CSc3c(c4ccccc4n3C)C2C(=O)NCc2ccccc2)cc1 (configuration not stated)	12.8%	1.55%	5.91%	11.5%	10.4%
CC1(C)C2CC[C@]3(C)C(C(=O)C=C4[C@H]5C[C@@](C)(C(=O)O)CC[C@]5(C)CC[C@]43C)[C@@]2(C)CC[C@@H]1O (some centres not stated)	3.77%		11.7%		
CC1CCCC(NC(=O)C2(C)Cn3c(cc4sccc43)C(=O)N2CCc2ccc(Cl)cc2)C1C (configuration not stated)	0.278%	1.99%	5.67%	2.41%	-0.632%
COC(=O)c1ncn2c1C(=O)N(c1ccc(C)c(C)c1)C(C)(C(=O)NC1CCCC1)C2 (configuration not stated)	-5.25%	-0.159%	-5.26%	-4.96%	-2.42%
CN1CCN(CCN2C(=O)c3ccc(-c4ccco4)n3CC2(C)C(=O)NC2CCCCCC2)CC1 (configuration not stated)	5.79%	0.734%	6.54%	6.37%	-3.53%
COC(=O)CC1(O)C(=O)Nc2ccccc21 (configuration not stated)	0.797%	1.43%	5.55%	-9.11%	-2.13%
Cc1cccc(NC(=O)CSc2nnc3n(CCc4ccccc4)c(=O)c4ccccc4n23)c1	2.58%	0%	7.62%	2.42%	-0.466%
O=c1n(CC2CC2)c2cccnc2n1[C@H]1CCCN(S(=O)(=O)c2cccnc2)C1	-3.47%	-0.636%	0.598%	-16.5%	0.661%
CC(C)=C1C[C@@]2(C)C(=CC1=O)CC[C@@H](OC(=O)/C(C)=C/CO)[C@@H]2C	-1.79%	2.66%	2.27%	-12.3%	-6%
C[C@@H](N[C@H]1CCCC[C@@H]1NC(=O)c1ccc(Cl)cc1)c1cccc2ccccc12	-10.4%	-16.7%	0.565%	-32.6%	-6.67%
CCNC(=O)N1CCN(CCCC(c2ccc(F)cc2)c2ccc(F)cc2)CC1	-1.93%	14.1%	4.24%	-6.93%	3.88%
Cc1nc(N2CCC(NCCc3n[nH]c(=O)[nH]3)CC2)c2ccsc2n1	-3.26%	-4.61%	0.215%	-2.31%	-1.89%
CC1CC[C@]2(C(=O)O)CC[C@]3(C(=O)O)C(=CCC4[C@@]5(C)CC[C@H](OC6OC(C)C(O)C(OC7OC(CO)C(O)C(O)C7O)C6O)C(C)(C)C5CC[C@]43C)C2C1C (some centres not stated)	-5.55%	-15.8%	3.23%	-25.6%	-0.795%
CCN(CC)CCNC(=O)CCc1nnc2n(Cc3ccccc3)c(=O)c3ccccc3n12	-5.36%	0%	-25.1%	8.97%	3.56%
Fc1ccc(C(OCCCc2cnc[nH]2)c2ccc(F)cc2)cc1	-2.57%	7.78%	-74.9%	-13.8%	6.28%
COCCCNC(=O)C1(C)Cn2nc(-c3ccccc3)cc2C(=O)N1c1cc(OC)cc(OC)c1 (configuration not stated)	5.53%	0%	7.45%	6.71%	0.808%
